Reference: the antibiotic and cytotoxicity screens of Wong et al. (2023)
This is one part of the list.

Each molecule was assayed on S. aureus RN4220 (assay: growth inhibition call (relative growth <= 0.2)). Settings: 50 µM.
`C[C@H]1CN([C@@H](C)CO)C(=O)c2cc(Br)cnc2O[C@H]1CN(C)S(=O)(=O)c1cccs1` was tested, and the growth inhibition call was “inactive”. For `NCc1cccc(-n2cccn2)c1`, the growth inhibition call was “inactive”. `C[C@H](CO)N1C[C@H](C)[C@H](CN(C)S(=O)(=O)c2cccs2)Oc2ncc(Br)cc2C1=O` was tested, and the growth inhibition call was “inactive”. For `CO[C@@H]1CN(C)C(=O)c2cc(NS(=O)(=O)CC(F)(F)F)ccc2OC[C@@H](C)N(Cc2nccs2)C[C@@H]1C`, the growth inhibition call was “inactive”. In the case of `O=C(NC[C@H]1CCCO1)c1ccc[nH]1`, the growth inhibition call is reported as “inactive”. For `C[C@@H]1CN([C@@H](C)CO)C(=O)c2cc(NC(=O)C3CC3)ccc2O[C@@H]1CN(C)S(=O)(=O)c1ccccc1`, the growth inhibition call was “inactive”. In the case of `COC1(NC(=O)CSCC#N)C(=O)N2C(C(=O)[O-])=C(CSc3nnnn3C)CSC21.[Na+]` (stereo not given), the growth inhibition call is reported as “active”. For `COc1cccc(S(=O)(=O)N(C)C[C@@H]2Oc3ncc(C#CC(C)C)cc3C(=O)N([C@H](C)CO)C[C@H]2C)c1`, the growth inhibition call was “inactive”. For `c1ccc(-c2cc(-c3ccccc3)n(-c3ccccc3)n2)cc1`, the growth inhibition call was “inactive”. `C[C@H](CO)N1C[C@H](C)[C@H](CN(C)Cc2ccccn2)Oc2ncc(C#Cc3ccc(F)cc3)cc2C1=O` was tested, and the growth inhibition call was “inactive”. In the case of `C[C@@H]1CN([C@H](C)CO)C(=O)c2cc(NC(=O)C3CCCCC3)ccc2O[C@H]1CN(C)Cc1ccc(Oc2ccccc2)cc1`, the growth inhibition call is reported as “inactive”. With `O=C(O)c1n[nH]c2c1C[C@H]1C[C@@H]21` the growth inhibition call was “inactive”. `CNC[C@@H]1OCCCC[C@H](C)Oc2ccc(NC(=O)Nc3cccc4ccccc34)cc2C(=O)N([C@H](C)CO)C[C@@H]1C` was tested, and the growth inhibition call was “inactive”. With `C[C@H](CO)N1C[C@H](C)[C@@H](CN(C)C(=O)Nc2cccc3ccccc23)Oc2ccc(NC(=O)CCC(F)(F)F)cc2CC1=O` the growth inhibition call was “inactive”. For `C[C@@H]1O[C@@H](O[C@H]2[C@H](OC(=O)[C@]34CCC(C)(C)C[C@H]3C3=CC[C@H]5[C@@]6(C)CC[C@H](O[C@@H]7O[C@H](CO)[C@@H](O)[C@H](O)[C@H]7O)C(C)(C)[C@@H]6CC[C@@]5(C)[C@]3(C)C[C@H]4O)OC[C@H](O)[C@@H]2O)[C@H](O)[C@H](O[C@@H]2OC[C@H](O)[C@H](O)[C@H]2O)[C@H]1O[C@@H]1OC[C@@H](O)[C@H](O[C@@H]2OC[C@H](O)[C@H](O)[C@H]2O)[C@H]1O`, the growth inhibition call was “inactive”. In the case of `COc1ccc(CN(C)C[C@@H]2Oc3c(NC(=O)c4ccc(-c5nccs5)cc4)cccc3C(=O)N([C@@H](C)CO)C[C@H]2C)cc1`, the growth inhibition call is reported as “inactive”. In the case of `Cc1noc(C)c1S(=O)(=O)N(C)C[C@@H]1Oc2ccc(NC(=O)CCC(F)(F)F)cc2CC(=O)N([C@@H](C)CO)C[C@H]1C`, the growth inhibition call is reported as “inactive”. For `C[C@@H]1CN([C@H](C)CO)C(=O)c2cc(NS(=O)(=O)c3ccc(Cl)cc3)ccc2O[C@@H](C)CCCCO[C@@H]1CN(C)CC1CCCCC1`, the growth inhibition call was “inactive”. For `C[C@H]1CCCCO[C@@H](CN(C)Cc2ccncc2)[C@@H](C)CN([C@@H](C)CO)C(=O)c2cc(NC(=O)Nc3ccc(C(F)(F)F)cc3)ccc2O1`, the growth inhibition call was “inactive”. `O=C(CN1CCOCC1)N[C@@H]1CC[C@H](CCn2cc(C3CC3)nn2)O[C@H]1CO` was tested, and the growth inhibition call was “inactive”. For `C[C@@H]1CN([C@H](C)CO)C(=O)c2cccc(NC(=O)Nc3ccc(F)cc3)c2O[C@@H]1CN(C)Cc1ccc(-c2ccccc2)cc1`, the growth inhibition call was “inactive”. `CCCNC(=O)N1C[C@]2(CN(C2)S(=O)(=O)c2ccc(cc2)OC)c2c(n(c3cc(ccc23)OC)C)[C@H]1CO` was tested, and the growth inhibition call was “inactive”. `Cc1noc(C)c1NC(=O)Nc1ccc2c(c1)C(=O)N([C@@H](C)CO)C[C@H](C)[C@@H](CN(C)S(=O)(=O)c1ccccc1)O2` was tested, and the growth inhibition call was “inactive”. For `Cc1noc(C)c1NC(=O)N(C)C[C@H]1Oc2ccc(NC(=O)CCN3CCOCC3)cc2CC(=O)N([C@H](C)CO)C[C@H]1C`, the growth inhibition call was “inactive”. For `C[C@H](CO)N1C[C@H](C)[C@H](CN(C)Cc2ccc3c(c2)OCO3)OCCCC[C@H](C)Oc2ccc(NS(=O)(=O)c3ccc(F)cc3)cc2C1=O`, the growth inhibition call was “inactive”. `C=C[C@H](CO[Si](CC)(CC)CC)N(Cc1ccc(OC(C)=O)c(OC)c1)S(=O)(=O)c1ccc(Br)cc1` was tested, and the growth inhibition call was “inactive”. With `C[C@@H]1CCCCO[C@@H](CN(C)Cc2ccc(C(F)(F)F)cc2)[C@@H](C)CN([C@@H](C)CO)C(=O)c2cc(NC(=O)Nc3cccc4ccccc34)ccc2O1` the growth inhibition call was “inactive”. In the case of `COc1ccc(CN(C)C[C@@H]2Oc3c(NC(=O)Nc4cccc5ccccc45)cccc3C(=O)N([C@H](C)CO)C[C@@H]2C)cc1`, the growth inhibition call is reported as “inactive”. With `O=C(C[C@@H]1CC[C@H](NC(=O)C2CC2)[C@@H](CO)O1)NCCCN1CCOCC1` the growth inhibition call was “inactive”. In the case of `CCCNC(=O)N(C)C[C@H]1Oc2ncc(-c3ccc(C(=O)N(C)C)cc3)cc2C(=O)N([C@@H](C)CO)C[C@H]1C`, the growth inhibition call is reported as “inactive”. For `COc1ccc(S(=O)(=O)N(C)C[C@H]2OCCCC[C@H](C)Oc3ccc(NC(=O)Nc4ccccc4)cc3C(=O)N([C@@H](C)CO)C[C@H]2C)cc1`, the growth inhibition call was “inactive”. With `CO[C@@H](CN(C)S(=O)(=O)c1ccc(Cl)cc1)[C@H](C)CN([C@H](C)CO)S(=O)(=O)c1cccc(Cl)c1` the growth inhibition call was “inactive”. In the case of `C[C@H](CO)N1C[C@H](C)[C@@H](CN(C)Cc2ccccc2)Oc2ccc(NC(=O)CCCCCC(=O)Nc3ccccc3N)cc2C1=O`, the growth inhibition call is reported as “inactive”. For `O=C(NCC1CC1)[C@H]1[C@H](CO)[C@H]2Cn3c(cccc3=O)[C@@H]1N2C(=O)c1cccnc1`, the growth inhibition call was “inactive”. With `NC(=O)c1cc(N)ccc1F` the growth inhibition call was “inactive”. In the case of `CCS(=O)(=O)Nc1ccc2c(c1)C(=O)N(C)C[C@H](OC)[C@@H](C)CN(Cc1ccccn1)[C@@H](C)CO2`, the growth inhibition call is reported as “inactive”. With `C[C@@H]1CN([C@@H](C)CO)C(=O)c2cccc(NC(=O)c3nc4ccccc4s3)c2O[C@@H]1CN(C)S(C)(=O)=O` the growth inhibition call was “inactive”. With `C[C@@H]1CCCCO[C@H](CN(C)Cc2ccccc2)[C@H](C)CN([C@@H](C)CO)C(=O)c2cc(NC(=O)Cc3ccccc3)ccc2O1` the growth inhibition call was “inactive”. With `Cc1noc(C)c1NC(=O)Nc1cccc2c1O[C@H](CN(C)C(=O)NC(C)C)[C@@H](C)CN([C@H](C)CO)C2=O` the growth inhibition call was “inactive”. With `C[C@H](NC(=O)N(C)C[C@H]1OCc2ccccc2-c2c(n(C)c3ccccc23)C(=O)N([C@@H](C)CO)C[C@H]1C)c1ccccc1` the growth inhibition call was “inactive”.
